The values below come from publication PMC12820563.

This is one part of the list. The list includes weakly bound sequences.

The target in this experiment is T1, MBP-FoxP3dN (UniProt Q99JB6).
T1 sequence: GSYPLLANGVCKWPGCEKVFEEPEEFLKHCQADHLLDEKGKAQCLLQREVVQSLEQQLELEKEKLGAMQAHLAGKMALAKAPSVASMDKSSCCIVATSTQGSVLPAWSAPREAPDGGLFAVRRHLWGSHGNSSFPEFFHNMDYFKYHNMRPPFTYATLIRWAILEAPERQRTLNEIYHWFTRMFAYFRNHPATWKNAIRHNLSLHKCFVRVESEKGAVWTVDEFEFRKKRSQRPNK
Nature of the experiment: PD-seq (MBP pull-down with sequencing). Conditions: 20 mM Tris-HCl pH 7.5, 100 mM NaCl, 1.5 mM MgCl2, 0.4 uM protein, 0.1 uM dsDNA library, 30 min, room temperature, amylose pull-down; high values mean tight binding; double strand, one strand shown.
As to “GATGATTGTTCTCCCAGCTGATGAATTGTCGGAATCGAGTAAACAAATTTTCCTAATCTTTCTGTTCAAGCGCCATCTAC”, the binding signal (RPM ratio (pull-down/input)) worked out at 0.241. Consider “GATGATTGTTCTCCCAGCTGATGAATTCCGGACTTCGAGTAAACAAATTTTCCTAATCTTTCTGTTCAAGCGCCATCTAC”, for which the binding signal (RPM ratio (pull-down/input)) amounted to 0.296. For the sequence “GATGATTGTTCTCCCAGCTGATGAATTGGGCCAATCGAGTAAACAAATTTTCCTAATCTTTCTGTTCAAGCGCCATCTAC”, the binding signal (RPM ratio (pull-down/input)) is 0.613. “GATGATTGTTCTCCCAGCTGATGAATTTCCAAGGTCGAGTAAACAAATTTTCCTAATCTTTCTGTTCAAGCGCCATCTAC”: the binding signal (RPM ratio (pull-down/input)) came to 0.17. Regarding “GATGATTGTTCTCCCAGCTGATGAATTGCGCATTTCGAGTAAACAAATTTTCCTAATCTTTCTGTTCAAGCGCCATCTAC”, the binding signal (RPM ratio (pull-down/input)) came out at 8.05.

As to “GATGATTGTTCTCCCAGCTGATGAATTACACGAATCGAGTAAACAAATTTTCCTAATCTTTCTGTTCAAGCGCCATCTAC”, the binding signal (RPM ratio (pull-down/input)) is 0.344. Next, “GATGATTGTTCTCCCAGCTGATGAATTTAGTTGGTCGAGTAAACAAATTTTCCTAATCTTTCTGTTCAAGCGCCATCTAC”: 3.61; “GATGATTGTTCTCCCAGCTGATGAATTGTACTAGTCGAGTAAACAAATTTTCCTAATCTTTCTGTTCAAGCGCCATCTAC”: 0.443; “GATGATTGTTCTCCCAGCTGATGAATTACGACAGTCGAGTAAACAAATTTTCCTAATCTTTCTGTTCAAGCGCCATCTAC”: 0.518. On to “GATGATTGTTCTCCCAGCTGATGAATTTATAGAGTCGAGTAAACAAATTTTCCTAATCTTTCTGTTCAAGCGCCATCTAC”, for which the binding signal (RPM ratio (pull-down/input)) amounted to 0.467.

“GATGATTGTTCTCCCAGCTGATGAATTCTATCCCTCGAGTAAACAAATTTTCCTAATCTTTCTGTTCAAGCGCCATCTAC”: the binding signal (RPM ratio (pull-down/input)) was determined as 0.424. Next, “GATGATTGTTCTCCCAGCTGATGAATTGTACGTGTCGAGTAAACAAATTTTCCTAATCTTTCTGTTCAAGCGCCATCTAC”: 0.647; “GATGATTGTTCTCCCAGCTGATGAATTACCGTGGTCGAGTAAACAAATTTTCCTAATCTTTCTGTTCAAGCGCCATCTAC”: 0.409; “GATGATTGTTCTCCCAGCTGATGAATTCTACATCTCGAGTAAACAAATTTTCCTAATCTTTCTGTTCAAGCGCCATCTAC”: 0.508. For the sequence “GATGATTGTTCTCCCAGCTGATGAATTGTAGGTTTCGAGTAAACAAATTTTCCTAATCTTTCTGTTCAAGCGCCATCTAC”, the binding signal (RPM ratio (pull-down/input)) came out at 0.853. Next, “GATGATTGTTCTCCCAGCTGATGAATTCATCAGATCGAGTAAACAAATTTTCCTAATCTTTCTGTTCAAGCGCCATCTAC”: 0.221; “GATGATTGTTCTCCCAGCTGATGAATTTGTGGCGTCGAGTAAACAAATTTTCCTAATCTTTCTGTTCAAGCGCCATCTAC”: 4.33; “GATGATTGTTCTCCCAGCTGATGAATTTGCCAGTTCGAGTAAACAAATTTTCCTAATCTTTCTGTTCAAGCGCCATCTAC”: 0.654. Then “GATGATTGTTCTCCCAGCTGATGAATTAATCACATCGAGTAAACAAATTTTCCTAATCTTTCTGTTCAAGCGCCATCTAC”, with 0.821; and “GATGATTGTTCTCCCAGCTGATGAATTAGTGAACTCGAGTAAACAAATTTTCCTAATCTTTCTGTTCAAGCGCCATCTAC”, with 0.464; and “GATGATTGTTCTCCCAGCTGATGAATTCTACACGTCGAGTAAACAAATTTTCCTAATCTTTCTGTTCAAGCGCCATCTAC”, with 0.352. Take “GATGATTGTTCTCCCAGCTGATGAATTAGTATGGTCGAGTAAACAAATTTTCCTAATCTTTCTGTTCAAGCGCCATCTAC”: the binding signal (RPM ratio (pull-down/input)) was 2.48. For “GATGATTGTTCTCCCAGCTGATGAATTGCAGAGGTCGAGTAAACAAATTTTCCTAATCTTTCTGTTCAAGCGCCATCTAC”, the binding signal (RPM ratio (pull-down/input)) was 0.465. Then “GATGATTGTTCTCCCAGCTGATGAATTTGCAAGTTCGAGTAAACAAATTTTCCTAATCTTTCTGTTCAAGCGCCATCTAC”, with 1.06; and “GATGATTGTTCTCCCAGCTGATGAATTAATTGGGTCGAGTAAACAAATTTTCCTAATCTTTCTGTTCAAGCGCCATCTAC”, with 1.88; and “GATGATTGTTCTCCCAGCTGATGAATTGTAAATATCGAGTAAACAAATTTTCCTAATCTTTCTGTTCAAGCGCCATCTAC”, with 2.18.

In the case of “GATGATTGTTCTCCCAGCTGATGAATTAGCATAATCGAGTAAACAAATTTTCCTAATCTTTCTGTTCAAGCGCCATCTAC”, the binding signal (RPM ratio (pull-down/input)) amounted to 0.643. Next, “GATGATTGTTCTCCCAGCTGATGAATTACGTGAATCGAGTAAACAAATTTTCCTAATCTTTCTGTTCAAGCGCCATCTAC”: 0.355; “GATGATTGTTCTCCCAGCTGATGAATTAGGTATATCGAGTAAACAAATTTTCCTAATCTTTCTGTTCAAGCGCCATCTAC”: 1.37. On to “GATGATTGTTCTCCCAGCTGATGAATTTCACGCTTCGAGTAAACAAATTTTCCTAATCTTTCTGTTCAAGCGCCATCTAC”, for which the binding signal (RPM ratio (pull-down/input)) was 0.501.

“GATGATTGTTCTCCCAGCTGATGAATTGAGTACATCGAGTAAACAAATTTTCCTAATCTTTCTGTTCAAGCGCCATCTAC”: the binding signal (RPM ratio (pull-down/input)) is 0.551.

“GATGATTGTTCTCCCAGCTGATGAATTGGCATCCTCGAGTAAACAAATTTTCCTAATCTTTCTGTTCAAGCGCCATCTAC”: the binding signal (RPM ratio (pull-down/input)) amounted to 4.28.

“GATGATTGTTCTCCCAGCTGATGAATTTCTGCACTCGAGTAAACAAATTTTCCTAATCTTTCTGTTCAAGCGCCATCTAC”: the binding signal (RPM ratio (pull-down/input)) came out at 0.475.

As to “GATGATTGTTCTCCCAGCTGATGAATTGTTATTTTCGAGTAAACAAATTTTCCTAATCTTTCTGTTCAAGCGCCATCTAC”, the binding signal (RPM ratio (pull-down/input)) worked out at 4.89.

Take “GATGATTGTTCTCCCAGCTGATGAATTCTTAGTGTCGAGTAAACAAATTTTCCTAATCTTTCTGTTCAAGCGCCATCTAC”: the binding signal (RPM ratio (pull-down/input)) is 0.401. As to “GATGATTGTTCTCCCAGCTGATGAATTGTCGTCATCGAGTAAACAAATTTTCCTAATCTTTCTGTTCAAGCGCCATCTAC”, the binding signal (RPM ratio (pull-down/input)) is 0.938. Then “GATGATTGTTCTCCCAGCTGATGAATTTCCTTGCTCGAGTAAACAAATTTTCCTAATCTTTCTGTTCAAGCGCCATCTAC”, with 0.296. Then “GATGATTGTTCTCCCAGCTGATGAATTGACTTACTCGAGTAAACAAATTTTCCTAATCTTTCTGTTCAAGCGCCATCTAC”, with 0.734. Next, “GATGATTGTTCTCCCAGCTGATGAATTGGGGACGTCGAGTAAACAAATTTTCCTAATCTTTCTGTTCAAGCGCCATCTAC”: 0.307. In the case of “GATGATTGTTCTCCCAGCTGATGAATTTGGATTGTCGAGTAAACAAATTTTCCTAATCTTTCTGTTCAAGCGCCATCTAC”, the binding signal (RPM ratio (pull-down/input)) turned out to be 1.29. Consider “GATGATTGTTCTCCCAGCTGATGAATTGGTTGATTCGAGTAAACAAATTTTCCTAATCTTTCTGTTCAAGCGCCATCTAC”, for which the binding signal (RPM ratio (pull-down/input)) was found to be 2.7.

Regarding “GATGATTGTTCTCCCAGCTGATGAATTCCGATCATCGAGTAAACAAATTTTCCTAATCTTTCTGTTCAAGCGCCATCTAC”, the binding signal (RPM ratio (pull-down/input)) was determined as 0.404. Regarding “GATGATTGTTCTCCCAGCTGATGAATTTCCTCAATCGAGTAAACAAATTTTCCTAATCTTTCTGTTCAAGCGCCATCTAC”, the binding signal (RPM ratio (pull-down/input)) turned out to be 0.203. As for “GATGATTGTTCTCCCAGCTGATGAATTCTCGTGTTCGAGTAAACAAATTTTCCTAATCTTTCTGTTCAAGCGCCATCTAC”, the binding signal (RPM ratio (pull-down/input)) turned out to be 0.485. On to “GATGATTGTTCTCCCAGCTGATGAATTGCTAATTTCGAGTAAACAAATTTTCCTAATCTTTCTGTTCAAGCGCCATCTAC”, for which the binding signal (RPM ratio (pull-down/input)) was 0.661.

As to “GATGATTGTTCTCCCAGCTGATGAATTCCTGCTGTCGAGTAAACAAATTTTCCTAATCTTTCTGTTCAAGCGCCATCTAC”, the binding signal (RPM ratio (pull-down/input)) amounted to 0.362.

“GATGATTGTTCTCCCAGCTGATGAATTGTCTCGTTCGAGTAAACAAATTTTCCTAATCTTTCTGTTCAAGCGCCATCTAC”: the binding signal (RPM ratio (pull-down/input)) was found to be 0.434. Then “GATGATTGTTCTCCCAGCTGATGAATTTTATCCCTCGAGTAAACAAATTTTCCTAATCTTTCTGTTCAAGCGCCATCTAC”, with 0.535. Then “GATGATTGTTCTCCCAGCTGATGAATTACGCTCTTCGAGTAAACAAATTTTCCTAATCTTTCTGTTCAAGCGCCATCTAC”, with 0.664.

As for “GATGATTGTTCTCCCAGCTGATGAATTGGAGATCTCGAGTAAACAAATTTTCCTAATCTTTCTGTTCAAGCGCCATCTAC”, the binding signal (RPM ratio (pull-down/input)) stood at 0.248. Next, “GATGATTGTTCTCCCAGCTGATGAATTGCAGACCTCGAGTAAACAAATTTTCCTAATCTTTCTGTTCAAGCGCCATCTAC”: 0.496; “GATGATTGTTCTCCCAGCTGATGAATTGACTAAATCGAGTAAACAAATTTTCCTAATCTTTCTGTTCAAGCGCCATCTAC”: 0.228; “GATGATTGTTCTCCCAGCTGATGAATTAATCTCTTCGAGTAAACAAATTTTCCTAATCTTTCTGTTCAAGCGCCATCTAC”: 0.313. Consider “GATGATTGTTCTCCCAGCTGATGAATTTCCCGGCTCGAGTAAACAAATTTTCCTAATCTTTCTGTTCAAGCGCCATCTAC”, for which the binding signal (RPM ratio (pull-down/input)) stood at 0.162.

On to “GATGATTGTTCTCCCAGCTGATGAATTTCACAGCTCGAGTAAACAAATTTTCCTAATCTTTCTGTTCAAGCGCCATCTAC”, for which the binding signal (RPM ratio (pull-down/input)) turned out to be 0.247. Next, “GATGATTGTTCTCCCAGCTGATGAATTTCTTTTTTCGAGTAAACAAATTTTCCTAATCTTTCTGTTCAAGCGCCATCTAC”: 0.77; “GATGATTGTTCTCCCAGCTGATGAATTAGCTCACTCGAGTAAACAAATTTTCCTAATCTTTCTGTTCAAGCGCCATCTAC”: 0.367. As to “GATGATTGTTCTCCCAGCTGATGAATTGTAGCCTTCGAGTAAACAAATTTTCCTAATCTTTCTGTTCAAGCGCCATCTAC”, the binding signal (RPM ratio (pull-down/input)) is 2.28. Then “GATGATTGTTCTCCCAGCTGATGAATTGGCGAAGTCGAGTAAACAAATTTTCCTAATCTTTCTGTTCAAGCGCCATCTAC”, with 0.225.

For “GATGATTGTTCTCCCAGCTGATGAATTTACGTTATCGAGTAAACAAATTTTCCTAATCTTTCTGTTCAAGCGCCATCTAC”, the binding signal (RPM ratio (pull-down/input)) was determined as 1.1. Then “GATGATTGTTCTCCCAGCTGATGAATTCAGAGTCTCGAGTAAACAAATTTTCCTAATCTTTCTGTTCAAGCGCCATCTAC”, with 1.19; and “GATGATTGTTCTCCCAGCTGATGAATTACCTTACTCGAGTAAACAAATTTTCCTAATCTTTCTGTTCAAGCGCCATCTAC”, with 0.372.

Turning to “GATGATTGTTCTCCCAGCTGATGAATTTGTTAGTTCGAGTAAACAAATTTTCCTAATCTTTCTGTTCAAGCGCCATCTAC”, the binding signal (RPM ratio (pull-down/input)) was found to be 7.44.
